Among all 48,000 compounds or so, about 120 (0.25%) were called active. About 4% were inconclusive and are not listed. The call rests on the fitted dose curve; in most records, active means well fitted activation curve with a large enough effect; inconclusive means small, poorly fitted or top-dose-only effect, or another doubt; inactive means no such curve, though single readings can be large or run the other way. The list shows a part of the results.
assay: Primary qHTS for Identification of Small Molecule Activators of Huntingtin-Antisense Promoter Activity; settings: HEK293 HTT-AS promoter firefly luciferase reporter, 24 h; series mostly up to 57.5 µM; activity change, positive = activation: at the top concentration; further: nearly all actives have a fitted effect of over 55% in size
Summary of the method: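 HEK293 cells carrying firefly luciferase reporters were seeded at 2,500 per well in Opti-MEM and cultured for 24 h. They were then treated with compounds at up to 57.5 uM final for 24 h at 37 degrees C before Dual-Glo luminescence readout.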

Activity change, positive = activation, inactive:
Cc1ccn2c(Nc3ccc(F)cc3)c(-c3ccccn3)nc2c1 21.3%
O=C(Cn1nc(-c2ccccc2)nc(Cc2ccccc2)c1=O)Nc1ccccc1 -4.97%
CCCCC(=O)OC1=C(C(C)=O)N(Cc2ccccc2)S(=O)(=O)c2ccccc21 -17.6%
CCC(Sc1ncnc2sc3c(c12)CCCC3)C(=O)OC(C)C (stereo not given) -23.5%
CCCC(=O)N1CC(=O)Nc2ccc(Cl)cc2C1c1ccccc1 (stereo not given) -4.71%
Cc1ccc(N2C(=O)NC(NS(=O)(=O)c3ccc(Cl)cc3)(C(F)(F)F)C2=O)cc1C (stereo not given) -28.3%
COc1ccc(S(=O)(=O)N2CCC(c3ccncc3)CC2)cc1OC -28.1%
CCc1ccc(NC(=O)Cn2c(=O)n(Cc3nc(-c4ccccc4)no3)c(=O)c3cc4c(cc32)OCO4)cc1 -5.08%
Cc1cccc(C(=O)Nc2ccc(C(=O)OCc3cc(=O)n4nc(C5CC5)sc4n3)cc2)c1 0%
COc1ccccc1N1CCN(C(=O)CCc2nnc3n(C)c(=O)c4sccc4n23)CC1 -11.1%
COc1ccc(S(=O)(=O)NCC(c2ccc(N(C)C)cc2)N2CCc3ccccc32)cc1 (stereo not given) -0.703%
COCCNC(=O)CSc1cn(CC(=O)N2CCCCCC2)c2ccccc12 -14.6%
Cc1ccc(NC(=O)C2CCCN2S(=O)(=O)c2ccc3nc(-c4ccccc4)[nH]c3c2)cc1F (stereo not given) -37.8%
CCOc1ccc(OCC)c(NC(=O)C2CCN(S(=O)(=O)c3cn(C)cn3)CC2)c1 -1.84%
CSc1cccc(NC(=O)CC(c2cccs2)N2Cc3ccccc3C2=O)c1 (stereo not given) -33%
COc1cc(-c2noc(CN3CCN(c4cccc(Cl)c4)CC3)n2)cc(OC)c1OC -13.5%
CCOc1ccccc1NC(=O)N1CCN(C)c2ncccc21 -20.4%
Cc1ccc(NC(=O)CSc2n[nH]c(-c3ccc(F)cc3)n2)cc1F -20.1%
O=Cc1ccccc1C=O -6.06%
COc1ccc2nc(NC(=O)c3nc(S(=O)(=O)Cc4ccccc4)ncc3Cl)sc2c1 -54.8%
CSc1ccc(CCNC(=O)CCc2c(C)nc3c(c(C)nn3-c3ccc(C)c(C)c3)c2C)cc1 -7.41%
CCOC(=O)c1cccc(NC(=O)c2ccc3nc(C(C)C)oc3c2)c1 -1.73%
O=C(Nc1cccc(Cl)c1Cl)c1cc2nc(-c3ccc(Cl)cc3)cc(C(F)(F)F)n2n1 -2.66%
CCC(C(=O)Nc1nnc2n1CCS2)c1ccccc1 (stereo not given) -8.13%
COc1ccc(Cn2c(=O)n(-c3ccccc3C)c(=O)c3c4c(sc32)CN(C(C)=O)CC4)cc1 -38.3%
CCCN(CCC)CCNC(=O)c1cc2c(-c3ccc(Cl)cc3)nn(C)c2s1 -21.4%
O=C(NCCc1nc2ccccc2n1Cc1ccccc1)c1ccco1 -12.2%
CCN(CC)CCNC(=O)C1CCN(c2cc(C)nc3c(-c4ccc(Cl)cc4)c(C)nn23)CC1 -22.3%
Cc1ccc(NS(=O)(=O)c2cnc(N)nc2)c(C)c1 -10.4%
CCc1nn(CC(=O)Nc2cc(C)cc(C)c2)c(=O)c2cc3sccc3n12 -28.1%
Cc1nc(-n2nc(C)c(Cc3ccc4c(c3)OCO4)c2C)sc1C(=O)Nc1cccc(Cl)c1 -16.7%
Cc1ccc(CN2CCCn3nc(C(=O)NCc4ccc(OC(C)C)cc4)cc3C2=O)cc1 -23%
COC(=O)c1ccc(NC(=O)CCc2c(C)nc3c(-c4ccccc4)c(C)nn3c2C)cc1 -34.8%
CCn1c(CNC(=O)c2ccc(OC)cc2)nnc1SCC(=O)Nc1ccccc1 -13.4%
COc1ccc(-n2c(C)c(C(C)=O)c3cc(OC(=O)c4ccc(C)cc4)ccc32)cc1 -13.2%
CCOC(=O)c1ccc(OCC2c3cc(OC)c(OC)cc3CCN2C(=O)c2ccc(S(=O)(=O)N3CCCC3)cc2)cc1 (stereo not given) -9.62%
CCC1=Nc2cc(C(=O)NCC(C)c3ccccc3)ccc2Sc2ccc(C)cc21 (stereo not given) -22.7%
Cc1ccc(CCNC(=O)c2cn(C)c3ccc(S(=O)(=O)N(C)C4CCCCC4)cc3c2=O)cc1 2.28% [at 11.5 µM, percent change from vehicle, -100% = no light]
COc1ccc(CNS(=O)(=O)c2cc3c(cc2C)N(C)CCO3)cc1 -34.9%
Cc1ccc(Cn2cc(C(=O)c3ccc(F)cc3)c(=O)c3cc4c(cc32)OCO4)cc1 -27.3%
CCOC(=O)Cn1c(=O)n(CC2CCCO2)c2nc(-c3ccccc3F)nc(C(N)=O)c21 (stereo not given) -6.1%
CN(C)CCCN1c2ccccc2Sc2ccc(C(F)(F)F)cc21 -23%
Cc1cccc(NC(=O)c2cc(S(=O)(=O)NCc3ccc4c(c3)OCO4)ccc2F)c1C -22.5%
CCOC(=O)Cc1ccc(NC(=O)Nc2ccccc2OCc2cc(=O)n3ccccc3n2)cc1 8.44%
O=C(NCc1ccc2c(c1)CCN2C(=O)c1ccccc1)Nc1cc(F)ccc1F -43.4%
COc1ccccc1-n1c(=O)c2c3c(sc2n(C)c1=O)CN(C(C)=O)CC3 -9.42%
CCn1nnc2cc(C(=O)Nc3cccc(Cl)c3C)ccc21 9.31%
COc1ccc(Cn2c(CNS(=O)(=O)c3ccc(C)c(C)c3)nc3cccnc32)cc1 -16.7%
COc1ccc(-c2nc3scc(CCNS(=O)(=O)c4ccccc4F)n3n2)cc1 -22.4%
CC(Oc1ccc(F)cc1)C(=O)Nc1nc(-c2ccc(F)cc2)ns1 (stereo not given) -38.7%
COc1ccc(C)cc1S(=O)(=O)NCC(c1cccs1)S(=O)(=O)c1ccc(C)cc1 (stereo not given) -13.9%
COc1ccc(-c2noc(-c3ccc(N4CCCC4)c([N+](=O)[O-])c3)n2)cc1 -16.4%
COc1ccc(NC(=O)N2CCc3c(sc4c3CCCC4)C2c2ccccc2OC)cc1 (stereo not given) -11.8%
CC(C)CC(=O)Nc1ccc2nc(SCC(=O)N3CCCC3)sc2c1 -2.05%
CCOc1ccc(N(CC(=O)Nc2cc(C)ccc2C)S(=O)(=O)c2c(C)[nH]c(=O)[nH]c2=O)cc1 -7.13%
Cc1ccc(NC(=O)CCn2nc(C)c(S(=O)(=O)N3CCCCC3)c2C)cc1Cl -13.3%
CCOC(=O)c1c(C)sc(-c2c(-c3cc(C)ccc3C)[nH]c3c2c(=O)n(C)c(=O)n3C)c1O -18.8%
CCN(c1ccc(C)cc1)S(=O)(=O)c1nnc(NC(=O)C2CCCCC2)s1 -7.98%
Cc1ccc(C)c(CN2C(=O)c3ccccc3S(=O)(=O)c3ccc(C(=O)N4CCc5ccccc54)cc32)c1 -21.3%
CCCNC(=O)CSc1nc2ccccc2nc1Cc1ccc(Cl)cc1 -5.94%

Source: PubChem BioAssay AID1508624 (National Center for Advancing Translational Sciences (NCATS), 2021)
